# The whole screen tested about 220,000 compounds, of which about 5,700 (2.6%) were called active. Inconclusive results, whose numbers are uncertain, are shown with a selection of clear calls. The call rests on the fitted dose curve; in most records, active means well fitted inhibition curve with a large enough effect; inconclusive means small, poorly fitted or top-dose-only effect; inactive means no such curve, though single readings can be large or run the other way. A potency beside an inconclusive call is a rough fit, not a confirmed value.
# Molecular target: Lysine-specific demethylase 5B (Homo sapiens) (UniProt Q9UGL1)
# Chain of UniProt Q9UGL1 (Q9UGL1 whole entry, looked up): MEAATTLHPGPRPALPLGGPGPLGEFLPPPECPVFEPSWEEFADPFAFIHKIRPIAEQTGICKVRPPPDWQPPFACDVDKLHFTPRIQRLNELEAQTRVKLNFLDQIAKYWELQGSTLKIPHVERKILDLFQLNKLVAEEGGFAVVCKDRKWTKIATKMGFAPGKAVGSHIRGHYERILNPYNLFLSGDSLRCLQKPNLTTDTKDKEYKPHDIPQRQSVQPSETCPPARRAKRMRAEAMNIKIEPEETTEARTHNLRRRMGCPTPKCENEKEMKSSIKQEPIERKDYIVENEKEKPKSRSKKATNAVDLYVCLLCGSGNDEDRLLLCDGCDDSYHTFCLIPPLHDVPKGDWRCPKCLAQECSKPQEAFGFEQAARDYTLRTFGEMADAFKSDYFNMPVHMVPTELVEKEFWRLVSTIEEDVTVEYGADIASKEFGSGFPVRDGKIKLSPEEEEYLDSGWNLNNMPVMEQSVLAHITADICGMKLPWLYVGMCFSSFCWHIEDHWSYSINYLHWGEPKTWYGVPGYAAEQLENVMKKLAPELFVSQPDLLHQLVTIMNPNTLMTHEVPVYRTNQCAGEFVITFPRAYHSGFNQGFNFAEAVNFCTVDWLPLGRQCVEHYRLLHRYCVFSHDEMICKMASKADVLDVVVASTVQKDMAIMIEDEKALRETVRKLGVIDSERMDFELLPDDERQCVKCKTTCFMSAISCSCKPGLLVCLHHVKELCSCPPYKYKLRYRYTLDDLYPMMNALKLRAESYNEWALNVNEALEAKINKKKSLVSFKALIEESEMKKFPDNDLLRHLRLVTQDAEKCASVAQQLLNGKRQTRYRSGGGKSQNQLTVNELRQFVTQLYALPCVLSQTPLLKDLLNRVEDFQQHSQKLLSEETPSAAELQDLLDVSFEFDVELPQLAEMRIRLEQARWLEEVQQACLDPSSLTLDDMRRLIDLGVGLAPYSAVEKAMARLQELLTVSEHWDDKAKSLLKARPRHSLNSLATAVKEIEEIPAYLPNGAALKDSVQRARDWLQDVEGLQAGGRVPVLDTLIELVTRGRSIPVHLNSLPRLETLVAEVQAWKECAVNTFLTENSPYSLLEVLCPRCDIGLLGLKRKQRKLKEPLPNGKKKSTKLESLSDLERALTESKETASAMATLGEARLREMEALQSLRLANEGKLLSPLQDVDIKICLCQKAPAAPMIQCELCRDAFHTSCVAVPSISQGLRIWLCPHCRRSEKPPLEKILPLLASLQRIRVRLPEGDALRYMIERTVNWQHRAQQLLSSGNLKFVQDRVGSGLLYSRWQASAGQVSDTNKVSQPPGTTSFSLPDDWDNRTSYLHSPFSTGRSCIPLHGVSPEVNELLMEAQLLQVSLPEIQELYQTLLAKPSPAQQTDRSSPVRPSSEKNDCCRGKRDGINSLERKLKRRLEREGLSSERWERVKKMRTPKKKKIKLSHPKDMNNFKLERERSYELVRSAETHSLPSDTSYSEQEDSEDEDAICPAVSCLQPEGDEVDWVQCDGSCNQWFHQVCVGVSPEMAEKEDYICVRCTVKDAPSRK
# Assay: Primary screen for KDM5B Histone Demethylases FDH-coupled qHTS; further: nearly all actives have a fitted effect of over 70% in size; on activity change, negative = inhibition: 0% is about no effect
# Conditions: FDH-coupled NADH fluorescence (FDH is formaldehyde dehydrogenase); activity change, negative = inhibition: at 57.7 µM (top of the series) unless noted
# Summary of the method: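 Here, H3K4me3 peptide (12.5 µM in substrate mix) is demethylated by KDM5BΔAP, 200 nM final, after 10 min compound exposure. Formaldehyde product is coupled through FDH (0.25 U/mL in mix) to NADH fluorescence; 30-min ΔRFU feeds dose-response curves.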
# Potency means the concentration at half of the fitted maximal effect; tags describe the fitted curve by direction and shape.
SMILES,Potency,"activity change, negative = inhibition"
O=C(Cc1cccs1)N1CC(Oc2ccccc2-c2nc(C3CC3)no2)C1,"inconclusive: 14.1 µM [inhibitor, partial curve, poor fit]",
Cc1ccc(C2CC(c3cccs3)=NN2C(=O)CCl)cc1 (stereo not drawn),"inconclusive: 39.8 µM [inhibitor, single point]",
c1ccc(-c2cnc(Nc3cccnc3)c3c2CCO3)cc1,"inconclusive: 31.6 µM [inhibitor, partial curve]",
Cc1noc2c(N3CCN(Cc4ccccc4)CC3)cc(-c3ccsc3)nc12,"inconclusive: 31.6 µM [inhibitor, partial curve, poor fit]",
CCCn1c(=N)c(C(=O)NCc2cccnc2)cc2c(=O)n3ccccc3nc21,"inconclusive: 2.82 µM [inhibitor, partial curve, poor fit]",
CN1CC(=O)N(c2cccnc2)Cc2c(NCC3CCCCC3)ncnc21,"inconclusive: 39.8 µM [inhibitor, single point]",
CCOC(=O)c1cc(OC(=O)c2ccc(OC)cc2)n(-c2ccccc2)n1,"inconclusive: 25.1 µM [inhibitor, partial curve, poor fit]",
O=C(/C(Br)=C\Nc1ccc(F)cc1)C(F)(F)F,"inconclusive: 39.8 µM [inhibitor, single point]",
CCOc1ccc(C(=O)N[C@@H]2CN(C)C[C@H]2CN(C)C)cc1,"inconclusive: 28.2 µM [inhibitor, partial curve]",
O=C1NCCN2CC3(CCN(C(=O)Nc4ccccc4)CC3)CC12 (stereo not drawn),"inconclusive: 14.1 µM [inhibitor, single point]",
COc1ccc(OC)c(-c2noc(N3CCN(c4cc(C)ccc4C)CC3)n2)c1,"inconclusive: 35.5 µM [inhibitor, single point]",
CN(C)C(=O)c1nc(-c2cccc(C(F)(F)F)c2)c2cnccn12,active: 7.94 µM,
COc1ccc2c(C)c(CCC(=O)N3CCOCC3)c(=O)oc2c1C,"inconclusive: 10 µM [inhibitor, partial curve, poor fit]",
CNc1cc(C(=O)N[C@H](c2cccs2)C2CC(O)C2)ccn1 (stereo partly drawn),active: 28.2 µM,
COc1ccc(-c2noc([C@@H]3Cc4nc[nH]c4CN3C(=O)NC3CCCCC3)n2)cc1,"inconclusive: 3.55 µM [inhibitor, full curve]",
O=C(c1ccc(Cl)s1)N1CCC2(COc3ncccc3S(=O)(=O)N2)C1 (stereo not drawn),inactive,
COc1ccc(OC)c(CCNC(=O)Cn2ccc3cc(S(=O)(=O)N4CCCCC4)ccc32)c1,"inconclusive: 44.7 µM [inhibitor, single point]",
Cc1cccc(S(=O)(=O)C(C#N)c2nc3ccccc3nc2N2CCN(c3ccccc3)CC2)c1 (stereo not drawn),"inconclusive: 12.6 µM [inhibitor, partial curve, poor fit]",
O=C(Cc1cccc(Cl)c1)N1CCn2c(nn(-c3ccc(F)cc3)c2=O)C1,"inconclusive: 15.8 µM [inhibitor, partial curve]",
CCc1noc(C(C)N2CCN(c3oc(-c4ccco4)nc3C#N)CC2)n1 (stereo not drawn),"inconclusive: 20 µM [inhibitor, partial curve, poor fit]",
CC(=O)Nc1ccc(NC(=O)c2cnc3ccccc3n2)cc1,inactive,

SMILES,Potency,"activity change, negative = inhibition"
CCCC(=O)Nc1cccc(-c2cn3cccnc3n2)c1,"inconclusive: 31.6 µM [inhibitor, partial curve, poor fit]",
CC1CCC(NC(=O)c2cc3n(n2)CC(c2ccc4c(c2)OCO4)OC3)CC1 (stereo not drawn),"inconclusive: 31.6 µM [inhibitor, partial curve, poor fit]",
CCOC(=O)c1ccc(NS(=O)(=O)c2ccc3c(c2)OCCO3)cc1,"inconclusive: 31.6 µM [inhibitor, partial curve, poor fit]",
CN(C)C[C@@H]1CN(Cc2ccncc2)C[C@H]1NC(=O)Cc1ccsc1,"inconclusive: 20 µM [inhibitor, partial curve]",
O=C(Nc1ccc(N2CCOCC2)cc1)C1(CCO)CCN(c2ncccn2)C1 (stereo not drawn),active: 22.4 µM,
COc1ccccc1CN1CCn2c(nn(-c3ccc([N+](=O)[O-])cc3)c2=O)C1,"inconclusive: 25.1 µM [inhibitor, partial curve, poor fit]",
CC1Oc2ccc(NC(=O)c3c(F)cccc3F)cc2CN(CCc2ccc(F)cc2)C1=O (stereo not drawn),"inconclusive: 28.2 µM [inhibitor, single point]",
Cc1cccc(/C=N/Nc2ccc(Cl)c(Cl)c2)c1,inactive,
CC(=O)Nc1ccc(NC(=O)C(C)Br)cc1 (stereo not drawn),inactive,
O=C(c1ccc(Br)s1)N(Cc1cccc(Br)c1)C1CC1,inactive,
Cc1cnc(NC(=O)c2ccc3c(c2)OCCN(c2ccccc2)C3)s1,active: 28.2 µM,
CC1(C(=O)NCCN2CCOCC2)CCc2cnc(NCc3ccccc3)nc21 (stereo not drawn),"inconclusive: 35.5 µM [inhibitor, partial curve, poor fit]",
CN(C)c1ccc(C(CNC(=O)c2cccc(C(F)(F)F)c2)N2CCCC2)cc1 (stereo not drawn),"inconclusive: 28.2 µM [inhibitor, single point]",
CCCSc1nc(-c2ccc(OC)cc2)cc(-c2ccccc2OC)c1C#N,"inconclusive: 28.2 µM [inhibitor, partial curve, poor fit]",
CCn1c(SCC(=O)Nc2ccc(Cl)cc2)nc2nc3c(cc2c1=O)COC(C)(C)C3,"inconclusive: 28.2 µM [inhibitor, single point]",
COc1ccc(NC(=O)N2CCN(S(=O)(=O)c3ccc4c(ccn4C)c3)CC2)cc1OC,"inconclusive: 25.1 µM [inhibitor, partial curve, poor fit]",
Cc1ccc(-c2cc(C(=O)N3CCN(C(=O)c4ccc(Br)o4)CC3)[nH]n2)cc1C,inactive,
COC1CCN(C(=O)Cc2c[nH]c3ncc(-c4ccccc4)cc23)CC1,active: 39.8 µM,
COCCCNC(=O)C(C)n1c2ccccc2c2cnn(C)c(=O)c21 (stereo not drawn),"inconclusive: 25.1 µM [inhibitor, partial curve, poor fit]",
O=C(Nc1ccc(F)cc1F)c1cc(-c2ccco2)nc2ccccc12,"inconclusive: 25.1 µM [inhibitor, partial curve, poor fit]",
CCCCCCOc1ccc(CNCc2cc(OC)c(OC)cc2OC)cc1,"inconclusive: 14.1 µM [inhibitor, partial curve, poor fit]",

SMILES,Potency,"activity change, negative = inhibition"
O=C(NC1CCN(Cc2ccccc2)CC1)C1(CCO)CCN(c2ncccn2)C1 (stereo not drawn),"inconclusive: 17.8 µM [inhibitor, partial curve, poor fit]",
O=c1c2cc3c(cc2n(Cc2ccccc2)c(=O)n1Cc1nc(-c2ccccc2)no1)OCO3,"inconclusive: 2 µM [inhibitor, partial curve, poor fit]",
CCN(CC)S(=O)(=O)c1ccc2c(c1)CCN2,inactive,
Cc1cc2oc(=O)cc(-c3cc4ccccc4o3)c2cc1C,inactive,
CCCN1CCC2(CCN(C(=O)COC)CC2)Oc2ccccc21,"inconclusive: 35.5 µM [inhibitor, single point]",
Cc1ccc(NC(=O)c2ccc3[nH]c(C)c(C)c3c2)cc1,inactive,
COc1ccc(NC(=O)CN2C(=O)CSc3ccc(S(=O)(=O)N(C)C)cc32)cc1Cl,,inconclusive: -34.4% [inhibitor]
Cc1ccc(-c2ccc(=O)n(CC(=O)NCCC(C)C)n2)cc1,"inconclusive: 20 µM [inhibitor, single point]",
NC1CCN(Cc2ccc(C(=O)NCc3ccc(S(N)(=O)=O)cc3)c(=O)[nH]2)C1 (stereo not drawn),active: 22.4 µM,
COc1cc(OC)cc(C(=O)Nc2ccc3oc(-c4ccccc4Cl)nc3c2)c1,"inconclusive: 35.5 µM [inhibitor, partial curve, poor fit]",
O=C(NC1CC1)c1nc(-c2cccc(C(F)(F)F)c2)c2ccccn12,"inconclusive: 25.1 µM [inhibitor, partial curve, poor fit]",
Cc1ccc(C2C3=C(COC3=O)Nc3n[nH]c(C)c32)cc1C (stereo not drawn),"inconclusive: 28.2 µM [inhibitor, partial curve, poor fit]",
Cc1cc(C)cc(NC(=O)Cn2c(=O)n(-c3ccc(C)c(C)c3)c(=O)c3oc4ccccc4c32)c1,"inconclusive: 39.8 µM [inhibitor, single point]",
O=C1NCc2ccccc2CC12CCN(Cc1c[nH]c3ccccc13)C2 (stereo not drawn),"inconclusive: 56.2 µM [inhibitor, partial curve, poor fit]",
COc1ccc(-c2cc(C(=O)NC3CC3)c3c(C4CCCN4)noc3n2)cc1 (stereo not drawn),active: 79.4 µM,
O=C(NCCN1CCOCC1)c1ccc(N2CC3CC(C2)[C@H]2CCCC(=O)N2C3)nc1 (stereo partly drawn),"inconclusive: 28.2 µM [inhibitor, single point]",
CCOc1ccc2cc(-c3csc(Nc4ccc(C)cc4)n3)c(=O)oc2c1,"inconclusive: 12.6 µM [inhibitor, partial curve, poor fit]",
COc1ccc2cc(CNc3ccc(C)cc3)c(=O)n(CC(=O)Nc3ccc(C)cc3Cl)c2c1,"inconclusive: 2 µM [inhibitor, full curve, poor fit]",
CCN1CCSc2ccc(C(=O)NCc3cccc(Br)c3)cc21,"inconclusive: 31.6 µM [inhibitor, partial curve, poor fit]",
CCOc1ccccc1N1CC(c2nc3ccccc3n2CCCOc2ccc(OC)cc2)CC1=O (stereo not drawn),inactive,
COc1cccc(CNC(=O)c2ccc(-n3c(C)cc4c3CCCC4)cc2)c1,"inconclusive: 14.1 µM [inhibitor, partial curve, poor fit]",
